No constants are given. Whether binding was seen depends on the method and setting. Binding seen in cells or lysates may run through a third protein. Some entries that bind do so weakly or less than the wild type. For some of these results: Where a sequence is shown, tags or fusion partners need not be part of it.
Columns and labels:
Assay in all cases: co-IP
[1] = target: HSV-1 UL31-Flag (herpes simplex virus 1 (F strain)) (UniProt P10215)
[2] = target: T1, IKKi-Myc (UniProt Q14164)
T1 sequence: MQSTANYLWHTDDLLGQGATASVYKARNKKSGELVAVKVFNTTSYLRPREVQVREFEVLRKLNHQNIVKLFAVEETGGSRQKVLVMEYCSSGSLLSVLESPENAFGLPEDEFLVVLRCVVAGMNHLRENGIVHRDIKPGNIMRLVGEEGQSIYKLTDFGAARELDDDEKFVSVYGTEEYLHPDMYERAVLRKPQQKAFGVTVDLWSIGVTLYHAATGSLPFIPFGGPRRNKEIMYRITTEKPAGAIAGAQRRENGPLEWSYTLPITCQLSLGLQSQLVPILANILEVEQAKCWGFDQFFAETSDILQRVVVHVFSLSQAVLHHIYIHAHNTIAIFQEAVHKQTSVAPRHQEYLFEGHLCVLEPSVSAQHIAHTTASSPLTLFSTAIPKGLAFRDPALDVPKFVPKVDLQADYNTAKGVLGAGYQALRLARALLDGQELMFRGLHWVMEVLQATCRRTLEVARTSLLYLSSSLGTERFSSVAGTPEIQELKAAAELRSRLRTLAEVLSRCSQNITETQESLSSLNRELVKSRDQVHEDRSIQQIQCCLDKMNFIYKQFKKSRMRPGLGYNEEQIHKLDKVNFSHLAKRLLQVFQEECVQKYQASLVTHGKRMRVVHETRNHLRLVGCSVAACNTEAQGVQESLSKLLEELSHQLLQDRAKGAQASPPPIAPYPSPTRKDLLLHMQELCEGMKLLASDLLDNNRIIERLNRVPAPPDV

By UniProt entry, the sequences of proteins in these tests, tags left out.
UniProt P10215: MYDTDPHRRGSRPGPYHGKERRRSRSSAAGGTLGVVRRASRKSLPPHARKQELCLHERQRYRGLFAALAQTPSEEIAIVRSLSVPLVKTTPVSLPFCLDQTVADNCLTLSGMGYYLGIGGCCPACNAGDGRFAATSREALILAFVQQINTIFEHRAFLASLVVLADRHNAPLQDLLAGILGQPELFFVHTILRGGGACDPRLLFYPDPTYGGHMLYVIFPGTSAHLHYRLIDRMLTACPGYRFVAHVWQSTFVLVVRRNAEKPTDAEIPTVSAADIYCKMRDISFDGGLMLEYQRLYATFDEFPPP
UniProt Q92793: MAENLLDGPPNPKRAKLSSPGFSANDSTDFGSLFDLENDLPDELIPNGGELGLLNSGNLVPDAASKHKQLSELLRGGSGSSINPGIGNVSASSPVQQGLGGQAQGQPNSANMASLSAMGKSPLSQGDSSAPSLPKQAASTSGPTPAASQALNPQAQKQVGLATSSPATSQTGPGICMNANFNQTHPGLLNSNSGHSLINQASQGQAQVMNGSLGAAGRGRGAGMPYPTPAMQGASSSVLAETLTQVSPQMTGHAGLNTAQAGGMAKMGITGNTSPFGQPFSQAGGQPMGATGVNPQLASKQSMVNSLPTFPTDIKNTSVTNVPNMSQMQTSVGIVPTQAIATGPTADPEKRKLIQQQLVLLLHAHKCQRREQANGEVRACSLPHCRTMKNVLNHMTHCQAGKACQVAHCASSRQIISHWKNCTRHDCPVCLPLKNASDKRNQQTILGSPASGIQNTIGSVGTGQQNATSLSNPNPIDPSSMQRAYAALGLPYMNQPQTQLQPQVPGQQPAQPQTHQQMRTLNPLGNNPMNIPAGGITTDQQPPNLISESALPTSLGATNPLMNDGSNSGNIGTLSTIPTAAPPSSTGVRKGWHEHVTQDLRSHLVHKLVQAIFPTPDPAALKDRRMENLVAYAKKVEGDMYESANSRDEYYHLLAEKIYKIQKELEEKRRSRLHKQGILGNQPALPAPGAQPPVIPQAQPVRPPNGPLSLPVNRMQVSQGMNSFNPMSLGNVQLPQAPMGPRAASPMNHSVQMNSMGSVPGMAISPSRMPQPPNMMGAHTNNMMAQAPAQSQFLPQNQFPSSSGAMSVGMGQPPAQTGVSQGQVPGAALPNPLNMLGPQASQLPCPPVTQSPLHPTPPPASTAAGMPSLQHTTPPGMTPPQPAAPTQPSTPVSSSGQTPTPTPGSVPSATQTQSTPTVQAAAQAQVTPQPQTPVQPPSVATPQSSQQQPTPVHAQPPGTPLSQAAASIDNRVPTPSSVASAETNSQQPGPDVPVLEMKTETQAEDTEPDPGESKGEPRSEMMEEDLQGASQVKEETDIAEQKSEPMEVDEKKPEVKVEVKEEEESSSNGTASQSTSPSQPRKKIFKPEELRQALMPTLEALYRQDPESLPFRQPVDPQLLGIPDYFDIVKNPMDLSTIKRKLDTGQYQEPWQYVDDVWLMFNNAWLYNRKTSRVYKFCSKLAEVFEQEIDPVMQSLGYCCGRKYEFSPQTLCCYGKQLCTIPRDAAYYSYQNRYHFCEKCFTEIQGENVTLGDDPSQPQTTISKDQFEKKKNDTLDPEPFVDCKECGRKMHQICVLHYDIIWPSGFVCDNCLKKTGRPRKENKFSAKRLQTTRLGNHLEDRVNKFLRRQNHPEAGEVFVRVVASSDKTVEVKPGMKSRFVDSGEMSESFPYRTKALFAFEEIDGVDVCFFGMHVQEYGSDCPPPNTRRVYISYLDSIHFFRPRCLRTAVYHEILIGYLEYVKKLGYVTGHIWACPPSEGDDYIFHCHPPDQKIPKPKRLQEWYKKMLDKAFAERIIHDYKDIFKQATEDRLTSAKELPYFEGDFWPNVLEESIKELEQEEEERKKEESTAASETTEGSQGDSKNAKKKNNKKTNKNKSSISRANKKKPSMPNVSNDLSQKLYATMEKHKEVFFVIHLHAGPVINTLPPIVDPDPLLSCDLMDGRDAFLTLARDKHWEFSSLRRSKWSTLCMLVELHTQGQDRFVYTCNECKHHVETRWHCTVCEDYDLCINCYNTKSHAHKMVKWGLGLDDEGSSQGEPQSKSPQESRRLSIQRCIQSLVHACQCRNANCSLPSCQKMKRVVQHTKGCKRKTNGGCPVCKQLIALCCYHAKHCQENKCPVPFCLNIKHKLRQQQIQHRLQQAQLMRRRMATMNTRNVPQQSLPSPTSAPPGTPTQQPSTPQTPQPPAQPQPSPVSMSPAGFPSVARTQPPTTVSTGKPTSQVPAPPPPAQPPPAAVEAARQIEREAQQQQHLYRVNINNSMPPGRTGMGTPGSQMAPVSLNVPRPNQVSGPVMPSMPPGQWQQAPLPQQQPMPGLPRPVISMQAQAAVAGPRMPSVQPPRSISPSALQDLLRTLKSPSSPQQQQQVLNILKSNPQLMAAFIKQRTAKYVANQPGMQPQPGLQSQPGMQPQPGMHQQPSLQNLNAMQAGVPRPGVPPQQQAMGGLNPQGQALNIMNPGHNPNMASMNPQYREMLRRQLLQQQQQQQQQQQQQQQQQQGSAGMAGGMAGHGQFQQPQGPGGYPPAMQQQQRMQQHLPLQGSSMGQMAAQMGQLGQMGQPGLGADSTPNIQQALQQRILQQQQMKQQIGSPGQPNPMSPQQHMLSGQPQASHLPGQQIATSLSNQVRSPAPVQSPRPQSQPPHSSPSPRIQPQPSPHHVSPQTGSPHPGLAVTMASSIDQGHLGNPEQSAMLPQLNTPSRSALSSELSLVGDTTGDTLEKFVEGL
UniProt Q14653: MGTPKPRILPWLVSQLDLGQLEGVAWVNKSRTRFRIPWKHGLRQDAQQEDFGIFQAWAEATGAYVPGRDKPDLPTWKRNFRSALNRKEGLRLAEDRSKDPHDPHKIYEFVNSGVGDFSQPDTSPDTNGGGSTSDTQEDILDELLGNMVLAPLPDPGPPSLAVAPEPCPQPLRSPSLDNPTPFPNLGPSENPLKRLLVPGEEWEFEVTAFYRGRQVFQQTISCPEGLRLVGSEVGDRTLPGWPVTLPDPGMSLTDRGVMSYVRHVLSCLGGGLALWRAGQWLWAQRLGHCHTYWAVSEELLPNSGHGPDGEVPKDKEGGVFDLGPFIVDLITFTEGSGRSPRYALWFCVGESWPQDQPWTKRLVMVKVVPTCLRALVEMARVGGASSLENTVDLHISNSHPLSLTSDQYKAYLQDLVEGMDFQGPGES

[3] = target: T2, TBK1-Myc (UniProt Q9UHD2)
T2 sequence: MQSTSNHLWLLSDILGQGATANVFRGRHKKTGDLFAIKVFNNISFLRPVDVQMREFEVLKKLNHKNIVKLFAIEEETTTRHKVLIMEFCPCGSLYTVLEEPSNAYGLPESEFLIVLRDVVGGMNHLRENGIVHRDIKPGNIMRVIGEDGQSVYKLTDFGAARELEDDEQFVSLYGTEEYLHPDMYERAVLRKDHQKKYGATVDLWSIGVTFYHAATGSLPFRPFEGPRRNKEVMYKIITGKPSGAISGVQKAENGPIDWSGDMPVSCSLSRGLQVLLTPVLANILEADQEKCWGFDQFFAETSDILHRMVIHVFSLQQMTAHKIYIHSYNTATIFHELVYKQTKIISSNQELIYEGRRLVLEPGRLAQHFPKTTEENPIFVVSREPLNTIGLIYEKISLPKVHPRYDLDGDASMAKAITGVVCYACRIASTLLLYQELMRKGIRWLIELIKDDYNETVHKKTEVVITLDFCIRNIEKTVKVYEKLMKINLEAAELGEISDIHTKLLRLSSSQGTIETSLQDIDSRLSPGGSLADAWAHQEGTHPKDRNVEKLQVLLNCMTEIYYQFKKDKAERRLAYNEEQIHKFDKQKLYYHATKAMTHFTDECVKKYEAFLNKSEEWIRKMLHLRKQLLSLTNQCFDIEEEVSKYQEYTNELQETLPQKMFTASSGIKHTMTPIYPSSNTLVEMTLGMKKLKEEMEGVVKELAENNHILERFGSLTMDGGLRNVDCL

[4] = target: CBP-Flag (UniProt Q92793)

Measured: binding

IRF3-HA (from UniProt Q14653 1-427)
binds: all assays above
